Data taken from PubChem BioAssay (NCATS).
This list was built around the results that the source calls inconclusive (neither active nor inactive); the mix of calls is not that of the screen. For part of these data: No potency is given beside an inconclusive call; the fits are too rough. Activity calls are given as the source filed them. Unless noted, the call rests on the fitted dose curve; in most records, active means well fitted curve in the direction sought with a large enough effect; inconclusive means small, poorly fitted or top-dose-only effect, or another doubt; inactive means no such curve, though single readings can be large; an effect the other way counts as inactive or inconclusive.

Columns and labels:
[1] = qHTS of pediatric cancer cell lines to identify multiple opportunities for drug repurposing: Primary screen for OHS-50 cells (AID 1347103); further: nearly all actives have a fitted effect of over 40% in size
Summary of the method: (§1)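 Cells (500-1,000/well) rested 5 h, then received compounds for 48 h; metabolically active cells were measured by CellTiter-Glo luminescence. Final concentrations spanned up to 46 µM (MIPE, 11-point) or 0.59 nM-46 µM (NPC, 8-point) in primary screens, 11-point in follow-ups.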

[2] = qHTS of pediatric cancer cell lines to identify multiple opportunities for drug repurposing: Primary screen for Rh41 cells (AID 1347108); further: nearly all actives have a fitted effect of over 70% in size; further: potency means the concentration at half of the fitted maximal effect;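 on activity change, negative = cytotoxic: luminescence drop marks cytotoxic hits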
Summary of the method: (§2)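 Cells seeded at 500-1,000 cells/well in growth media, rested 5 hours at 37 degrees C, 5% CO2, then dosed; MIPE compounds at 11-point (from 0.78 nM) and NPC at 8-point (from 0.59 nM) final concentrations. Viability by CellTiter-Glo luminescence after 48 hours.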

UISO = experiment: qHTS assay to identify novel small-molecules to repurpose for Merkel cell carcinoma treatment (AID 1296009); details: MCC and control cell lines, CellTiter-Glo viability, 72 h; activity change, negative = cytotoxicity: at 46 µM (top of the series); further: nearly all actives have a fitted effect of over 60% in size; further: potency means the concentration at half of the fitted maximal effect
Summary of the method: (§3)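 Luminescence from CellTiter-Glo, read 10 min after addition at room temperature, reported viability following a 72 hr, 37 degree celsius treatment with NPC or MIPE compounds in titration; values normalized to plate controls.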

[3] = qHTS of pediatric cancer cell lines to identify multiple opportunities for drug repurposing: Primary screen for DAOY cells (AID 1347090); details: DAOY medulloblastoma viability, CellTiter-Glo luminescence, 48 h; activity change, negative = cytotoxic: at 46 µM (top of the series); further: nearly all actives have a fitted effect of over 55% in size; further: potency means the concentration at half of the fitted maximal effect
Summary of the method: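 Eight- or eleven-point concentration series, 48 h treatment at 37 degrees C in growth media; readout CellTiter-Glo luminescence. Potency and efficacy were taken from the concentration-response curves.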

[4] = qHTS of pediatric cancer cell lines to identify multiple opportunities for drug repurposing: Primary screen for A673 cells (AID 1347092); details: A673 Ewing sarcoma viability, CellTiter-Glo ATP luminescence, 48 h; activity change, negative = cytotoxic: at 46 µM (top of the series); further: nearly all actives have a fitted effect of over 45% in size; further: potency means the concentration at half of the fitted maximal effect
Summary of the method: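 Cells are plated, rested 5 h, dosed by pintool, incubated 48 h, then lysed with CellTiter-Glo and read by luminescence. DMSO is the neutral control; bortezomib at 2.3 uM final is the positive control.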

[5] = qHTS of pediatric cancer cell lines to identify multiple opportunities for drug repurposing: Primary screen for BT-37 cells (AID 1347094); further: potency means the concentration at half of the fitted maximal effect
Summary of the method: as §2

[6] = qHTS of pediatric cancer cell lines to identify multiple opportunities for drug repurposing: Primary screen for NB-EBc1 cells (AID 1347095); further: potency means the concentration at half of the fitted maximal effect
Summary of the method: as §2

[7] = qHTS of pediatric cancer cell lines to identify multiple opportunities for drug repurposing: Primary screen for BT-12 cells (AID 1347101); further: nearly all actives have a fitted effect of over 25% in size; further: potency means the concentration at half of the fitted maximal effect
Summary of the method: as §1

[8] = qHTS of pediatric cancer cell lines to identify multiple opportunities for drug repurposing: Primary screen for RD cells (AID 1347104); details: RD rhabdomyosarcoma viability, CellTiter-Glo luminescence, 48 h; activity change, negative = cytotoxic: at 46 µM (top of the series); further: potency means the concentration at half of the fitted maximal effect; nearly all actives have a fitted effect of over 55% in size
Summary of the method: as §2

[9] = A High-Content qHTS Against Drug Library for the Identification of Small Molecules that Inhibit DYT1 Early Onset Primary Dystonia-Associated Cell Pathology (AID 1645839; calls by dose curve; further: potency means the concentration at half of the fitted maximal effect)
Summary of the method: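 Induced EGFP-delE TorsinA cells are imaged after 48 h of compound treatment. Punctate fusion-protein distribution gives the %pathology value, while nuclei counts flag toxicity. Wild-type EGFP-hTOR1A cells define the normal pattern.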

MKL-2 = experiment: qHTS assay to identify novel small-molecules to repurpose for Merkel cell carcinoma treatment (AID 1296009); details: MCC and control cell lines, CellTiter-Glo viability, 72 h; activity change, negative = cytotoxicity: at 46 µM (top of the series); further: nearly all actives have a fitted effect of over 60% in size; further: potency means the concentration at half of the fitted maximal effect
Summary of the method: as §3

WaGa = experiment: as above; details: MCC and control cell lines, CellTiter-Glo viability, 72 h; series mostly up to 46 µM
Summary of the method: as §3

[10] = Drug repurposing screens with cells derived from glioblastoma tumor samples (AID 1345199); details: GBM patient neurospheres viability, ATP luminescence, 48 h; Potency: tumour line A unless noted; series mostly up to 46 µM; further: potency means the concentration at half of the fitted maximal effect; nearly all actives have a fitted effect of over 40% in size
Summary of the method: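 Primary testing used CD133+ neurospheres from four GBM patients, seven concentrations, 48 h exposure and ATP-based viability; confirmation added three slower-growing patient lines.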

[11] = qHTS of pediatric cancer cell lines to identify multiple opportunities for drug repurposing: Primary screen for SK-N-SH cells (AID 1347098); further: potency means the concentration at half of the fitted maximal effect; nearly all actives have a fitted effect of over 65% in size
Summary of the method: as §1

Es-2 = experiment: Primary qHTS to identify gynecologic anti-cancer compounds using libraries of approved drugs and bioactive compounds (AID 1345084); details: Gynecologic cancer cell panel viability, ATPlite luminescence, 48 h; series mostly up to 57.5 µM; further: nearly all actives have a fitted effect of over 55% in size; further: potency means the concentration at half of the fitted maximal effect
Summary of the method: (§4)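 Cells, 1,000 per well, plated 16 h, then exposed 48 h at 37 C to compounds. Viability by ATPlite luminescence after 15 min at room temperature.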

HeLa = experiment: as above; details: Gynecologic cancer cell panel viability, ATPlite luminescence, 48 h; activity change, negative = cytotoxicity: at 57.5 µM (top of the series)
Summary of the method: as §4

JEG-3 = experiment: as above; details: Gynecologic cancer cell panel viability, ATPlite luminescence, 48 h; series mostly up to 57.5 µM
Summary of the method: as §4

Tov112D = experiment: as above; details: Gynecologic cancer cell panel viability, ATPlite luminescence, 48 h; series mostly up to 57.5 µM
Summary of the method: as §4
Tags describe the fitted curve by direction and shape.

SMILES: O=c1cc(CO)occ1O
- Potency [1]: inactive
- Potency [2]: inactive
- Potency (UISO): inactive

SMILES: CC[C@H](c1ccc(O)cc1)[C@@H](CC)c1ccc(O)cc1
- Potency [3]: inconclusive [cytotoxic, single point]
- Potency [4]: inconclusive [cytotoxic, single point]
- Potency [5]: inconclusive [cytotoxic, single point]
- Potency [6]: inconclusive [cytotoxic, full curve]
- Potency [7]: inconclusive [cytotoxic, single point]
- Potency [8]: inconclusive [cytotoxic, single point]
- Potency [9]: inconclusive [inhibitor, single point]
- Potency (MKL-2): inconclusive [inhibitor, single point]
- Potency (UISO): inconclusive [inhibitor, single point]
- Potency (WaGa): inconclusive [inhibitor, single point]

SMILES: C/C=C/c1ccc(O)c(OC)c1
- Potency [5]: inactive
- Potency [7]: inactive
- Potency [10]: inconclusive [inhibitor, partial curve, poor fit]
- Potency (MKL-2): inconclusive [inhibitor, partial curve, poor fit]

SMILES: Oc1cccc2[nH]ccc12
- Potency [11]: inconclusive [cytotoxic, partial curve, poor fit]
- Potency [9]: inconclusive [inhibitor, single point]
- Potency (UISO): active: 26.6 µM
- Potency (WaGa): inconclusive [inhibitor, single point]

SMILES: CO[C@]12C[C@@H](COC(=O)c3cncc(Br)c3)CN(C)[C@@H]1Cc1cn(C)c3cccc2c13
- Potency [5]: inactive
- Potency [11]: inconclusive [cytotoxic, full curve, poor fit]
- Potency [1]: inactive
- Potency [10]: inconclusive [inhibitor, partial curve]
- Potency (UISO): inactive

SMILES: Cc1cc2ncc(C(=O)NCC(C)(C)NCC(=O)N3CCC[C@H]3C#N)cn2n1
- Potency (Es-2): inconclusive [cytotoxic, single point]
- Potency (HeLa): inconclusive [cytotoxic, single point]
- Potency (JEG-3): inconclusive [cytotoxic, single point]
- Potency (Tov112D): inconclusive [cytotoxic, single point]

SMILES: O=C1c2ccccc2C(=O)C1c1ccc(Br)cc1
- Potency [7]: inactive
- Potency [1]: inactive
- Potency [2]: inactive
- Potency [10]: inconclusive [inhibitor, partial curve]
- Potency (MKL-2): inactive

SMILES: CCN(CC)CCOC(=O)C(c1ccccc1)C1CCCCC1 (configuration not stated)
- Potency [4]: inactive
- Potency [5]: inconclusive [cytotoxic, single point]
- Potency [6]: inconclusive [cytotoxic, single point]
- Potency [11]: active: 30.7 µM
- Potency [7]: inconclusive [cytotoxic, single point]
- Potency [8]: inconclusive [cytotoxic, single point]
- Potency [2]: inconclusive [cytotoxic, single point]
- Potency [9]: inconclusive [inhibitor, partial curve, poor fit]
- Potency [10]: active: 20 µM
- Potency (MKL-2): inconclusive [inhibitor, single point]
- Potency (WaGa): inactive

SMILES: COc1cc(C(=O)NC2CCN(C)CC2)ccc1Nc1ncc2c(n1)N(C1CCCC1)CC(F)(F)C(=O)N2C
- Potency (Es-2): inconclusive [cytotoxic, partial curve, poor fit]
- Potency (HeLa): inconclusive
- Potency (JEG-3): inconclusive
- Potency (Tov112D): inconclusive [cytotoxic, full curve, poor fit]

SMILES: CCC1Nc2cc(Cl)c(S(N)(=O)=O)cc2S(=O)(=O)N1 (configuration not stated)
- Potency [1]: inactive
- Potency [10]: inconclusive [inhibitor, partial curve]
- Potency (UISO): inactive

SMILES: CC(C)(C)C1CCC(CC2=C(O)c3ccccc3C(=O)C2=O)CC1 (configuration not stated)
- Potency [4]: inconclusive [cytotoxic, single point]
- Potency [5]: inconclusive [cytotoxic, full curve]
- Potency [6]: inconclusive [cytotoxic, single point]
- Potency [11]: inconclusive [cytotoxic, partial curve]
- Potency [7]: active: 24.6 µM
- Potency [8]: inconclusive [cytotoxic, partial curve]
- Potency [2]: inconclusive [cytotoxic, single point]
- Potency (UISO): inconclusive [inhibitor, single point]

SMILES: CCOC(=O)c1cc(=O)c2c(OCC(COc3cccc4oc(C(=O)OCC)cc(=O)c34)OC(=O)[C@@H](N)CCCCN)cccc2o1
- Potency [3]: inactive
- Potency [4]: inactive
- Potency [7]: inactive
- Potency [2]: inactive
- Potency (MKL-2): inconclusive [inhibitor, partial curve]
- Potency (WaGa): inconclusive [inhibitor, single point]

SMILES: N#CSCC(=O)O
- Potency [3]: inactive
- Potency [6]: inactive
- Potency [9]: inactive
- Potency (Es-2): inactive
- Potency (MKL-2): inconclusive [inhibitor, partial curve, poor fit]
